Results as given in publication PMC6375925.
These are yes or no findings as the source states them, for the method shown. For part of these data: In cells and extracts the contact can be indirect. Some entries that bind do so weakly or less than the wild type. For part of these data: Tags and fused reporters may be left off the sequences shown.

Protein sequences, listed by entry. Tags and fused reporters are not part of them. Lines headed by an entry give the natural chain unless they say otherwise; changes in a name come on top. Chains listed by the source or under a name are the forms on record and can include a tag or linker.
UniProt Q00722: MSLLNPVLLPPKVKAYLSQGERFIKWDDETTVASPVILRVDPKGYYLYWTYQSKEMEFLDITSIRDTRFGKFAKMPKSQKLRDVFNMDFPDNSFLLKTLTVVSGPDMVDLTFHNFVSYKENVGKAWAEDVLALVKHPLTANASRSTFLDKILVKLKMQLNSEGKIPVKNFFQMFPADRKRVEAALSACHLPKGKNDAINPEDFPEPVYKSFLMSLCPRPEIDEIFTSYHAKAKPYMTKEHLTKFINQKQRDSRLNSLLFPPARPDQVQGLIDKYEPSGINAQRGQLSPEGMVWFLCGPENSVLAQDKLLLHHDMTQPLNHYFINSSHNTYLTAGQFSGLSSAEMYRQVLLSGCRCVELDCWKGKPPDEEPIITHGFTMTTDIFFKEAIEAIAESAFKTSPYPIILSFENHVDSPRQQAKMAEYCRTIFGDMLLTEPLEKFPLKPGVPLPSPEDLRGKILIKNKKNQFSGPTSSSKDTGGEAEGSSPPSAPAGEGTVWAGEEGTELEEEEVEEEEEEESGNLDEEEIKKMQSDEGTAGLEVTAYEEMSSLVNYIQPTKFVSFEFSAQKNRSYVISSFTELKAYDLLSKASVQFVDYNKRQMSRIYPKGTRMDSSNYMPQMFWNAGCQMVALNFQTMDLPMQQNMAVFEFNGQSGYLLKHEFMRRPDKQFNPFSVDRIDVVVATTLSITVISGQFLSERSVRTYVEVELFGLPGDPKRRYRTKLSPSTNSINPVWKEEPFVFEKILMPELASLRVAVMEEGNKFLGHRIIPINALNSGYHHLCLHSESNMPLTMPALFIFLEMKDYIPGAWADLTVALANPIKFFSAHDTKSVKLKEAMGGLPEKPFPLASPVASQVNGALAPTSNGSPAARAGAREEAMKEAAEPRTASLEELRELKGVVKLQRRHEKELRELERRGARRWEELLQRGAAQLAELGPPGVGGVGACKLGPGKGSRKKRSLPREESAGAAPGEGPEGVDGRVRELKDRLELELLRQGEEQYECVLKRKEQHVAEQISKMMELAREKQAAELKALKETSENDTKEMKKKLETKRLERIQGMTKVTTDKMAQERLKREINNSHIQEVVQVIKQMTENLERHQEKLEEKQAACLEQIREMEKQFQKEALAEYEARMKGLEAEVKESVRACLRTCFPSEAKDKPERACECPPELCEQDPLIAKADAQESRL
phospholipase-inactive mutant of PLCβ2 (H327 and H374 mutated to alanine) (Q00722, form named): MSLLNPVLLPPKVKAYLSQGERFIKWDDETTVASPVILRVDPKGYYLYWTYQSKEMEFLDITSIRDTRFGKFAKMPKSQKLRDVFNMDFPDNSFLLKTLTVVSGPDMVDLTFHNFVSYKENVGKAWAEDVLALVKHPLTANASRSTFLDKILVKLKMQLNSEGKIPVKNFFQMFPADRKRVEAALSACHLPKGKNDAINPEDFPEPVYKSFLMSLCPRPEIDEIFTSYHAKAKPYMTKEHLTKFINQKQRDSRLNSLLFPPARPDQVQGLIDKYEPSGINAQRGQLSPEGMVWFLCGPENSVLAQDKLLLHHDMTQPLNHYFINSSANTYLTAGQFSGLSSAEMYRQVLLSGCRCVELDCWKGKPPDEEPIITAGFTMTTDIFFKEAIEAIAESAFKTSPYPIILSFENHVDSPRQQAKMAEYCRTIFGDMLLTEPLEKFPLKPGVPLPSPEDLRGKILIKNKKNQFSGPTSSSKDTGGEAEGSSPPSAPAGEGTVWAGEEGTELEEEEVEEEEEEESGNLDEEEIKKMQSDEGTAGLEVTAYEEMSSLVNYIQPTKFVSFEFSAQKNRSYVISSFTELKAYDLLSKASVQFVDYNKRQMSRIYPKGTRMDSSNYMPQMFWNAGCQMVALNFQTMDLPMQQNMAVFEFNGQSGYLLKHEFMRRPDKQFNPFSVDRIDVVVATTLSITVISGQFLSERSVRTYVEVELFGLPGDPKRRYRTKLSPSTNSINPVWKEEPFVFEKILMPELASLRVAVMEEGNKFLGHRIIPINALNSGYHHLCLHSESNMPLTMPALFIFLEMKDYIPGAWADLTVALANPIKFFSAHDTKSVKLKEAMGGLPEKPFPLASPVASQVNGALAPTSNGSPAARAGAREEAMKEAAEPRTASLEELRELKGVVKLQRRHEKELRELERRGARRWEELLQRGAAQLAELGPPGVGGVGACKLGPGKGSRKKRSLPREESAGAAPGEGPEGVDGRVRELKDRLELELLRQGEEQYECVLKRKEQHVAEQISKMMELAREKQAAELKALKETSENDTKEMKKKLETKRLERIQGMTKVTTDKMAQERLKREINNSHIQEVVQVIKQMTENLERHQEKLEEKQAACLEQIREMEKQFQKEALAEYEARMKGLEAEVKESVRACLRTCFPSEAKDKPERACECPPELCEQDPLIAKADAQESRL
UniProt A3KGF7: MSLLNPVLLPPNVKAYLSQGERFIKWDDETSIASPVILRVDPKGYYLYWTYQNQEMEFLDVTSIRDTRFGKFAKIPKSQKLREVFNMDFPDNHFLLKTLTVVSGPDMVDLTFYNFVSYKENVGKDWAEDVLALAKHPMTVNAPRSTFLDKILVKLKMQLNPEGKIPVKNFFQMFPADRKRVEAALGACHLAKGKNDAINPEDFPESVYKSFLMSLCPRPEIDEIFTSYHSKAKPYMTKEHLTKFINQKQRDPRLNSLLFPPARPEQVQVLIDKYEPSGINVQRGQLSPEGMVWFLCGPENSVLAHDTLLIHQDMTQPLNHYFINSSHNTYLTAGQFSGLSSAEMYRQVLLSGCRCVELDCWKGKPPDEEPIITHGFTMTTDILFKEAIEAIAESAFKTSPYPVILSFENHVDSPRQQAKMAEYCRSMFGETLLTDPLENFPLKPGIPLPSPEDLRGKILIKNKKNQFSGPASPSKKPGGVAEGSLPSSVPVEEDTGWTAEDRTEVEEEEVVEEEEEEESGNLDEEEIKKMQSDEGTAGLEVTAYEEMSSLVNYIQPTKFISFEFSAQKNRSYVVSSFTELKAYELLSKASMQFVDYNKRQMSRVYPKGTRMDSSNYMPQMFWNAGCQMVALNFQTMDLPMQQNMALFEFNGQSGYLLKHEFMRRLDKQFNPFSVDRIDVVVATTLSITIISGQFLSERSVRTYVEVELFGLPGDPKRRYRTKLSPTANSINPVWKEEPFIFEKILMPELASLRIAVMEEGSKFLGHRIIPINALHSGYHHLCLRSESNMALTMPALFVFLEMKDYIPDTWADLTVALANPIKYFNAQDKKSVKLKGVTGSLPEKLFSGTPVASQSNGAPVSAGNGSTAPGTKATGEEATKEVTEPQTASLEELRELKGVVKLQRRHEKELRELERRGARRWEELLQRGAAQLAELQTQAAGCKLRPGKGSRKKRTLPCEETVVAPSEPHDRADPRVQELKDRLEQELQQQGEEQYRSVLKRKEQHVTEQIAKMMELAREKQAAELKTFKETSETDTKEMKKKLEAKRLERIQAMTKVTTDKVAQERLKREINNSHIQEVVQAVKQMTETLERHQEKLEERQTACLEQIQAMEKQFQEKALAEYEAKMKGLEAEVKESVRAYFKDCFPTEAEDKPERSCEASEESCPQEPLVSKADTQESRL

Assays:
GST-TAK1 [1] = biological target: T1, GST-TAK1 (UniProt O43318); test: pull-down; GST-TAK1 coupled to glutathione beads incubated with RAW264.7 cell lysate for 4 h at 4 °C; immunoblot of endogenous PLCβ2 (Fig. 3e); only the target purified
T1 sequence: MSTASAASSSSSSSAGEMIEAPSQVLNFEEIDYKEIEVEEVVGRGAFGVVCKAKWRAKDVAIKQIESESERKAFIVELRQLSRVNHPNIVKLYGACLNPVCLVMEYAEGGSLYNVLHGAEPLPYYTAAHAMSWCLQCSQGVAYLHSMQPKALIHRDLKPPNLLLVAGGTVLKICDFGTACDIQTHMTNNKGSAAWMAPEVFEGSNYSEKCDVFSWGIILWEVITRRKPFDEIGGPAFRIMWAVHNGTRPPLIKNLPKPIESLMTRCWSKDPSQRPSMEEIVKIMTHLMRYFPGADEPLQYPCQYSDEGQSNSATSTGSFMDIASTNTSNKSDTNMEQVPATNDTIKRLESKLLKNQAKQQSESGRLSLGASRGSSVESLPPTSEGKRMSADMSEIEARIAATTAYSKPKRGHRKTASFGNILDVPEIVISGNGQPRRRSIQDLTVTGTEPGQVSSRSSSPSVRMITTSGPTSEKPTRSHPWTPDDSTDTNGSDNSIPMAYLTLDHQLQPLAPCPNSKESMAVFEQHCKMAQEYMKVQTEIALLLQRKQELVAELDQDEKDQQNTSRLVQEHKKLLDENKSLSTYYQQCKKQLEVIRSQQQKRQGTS

GST-TAK1 [2] = biological target: T1, GST-TAK1; test: pull-down; in vitro GST precipitation: GST-TAK1 coupled to glutathione beads incubated with purified His-PLCβ2 for 4 h at 4 °C; immunoblot (Fig. 3d); both purified
[3] = biological target: FLAG-tagged PLCβ2 (phospholipase C β2) (UniProt Q00722); test: co-IP
FLAG-tagged PLCβ3 = biological target: T2, FLAG-tagged PLCβ3 (UniProt Q01970); test: co-IP
T2 sequence: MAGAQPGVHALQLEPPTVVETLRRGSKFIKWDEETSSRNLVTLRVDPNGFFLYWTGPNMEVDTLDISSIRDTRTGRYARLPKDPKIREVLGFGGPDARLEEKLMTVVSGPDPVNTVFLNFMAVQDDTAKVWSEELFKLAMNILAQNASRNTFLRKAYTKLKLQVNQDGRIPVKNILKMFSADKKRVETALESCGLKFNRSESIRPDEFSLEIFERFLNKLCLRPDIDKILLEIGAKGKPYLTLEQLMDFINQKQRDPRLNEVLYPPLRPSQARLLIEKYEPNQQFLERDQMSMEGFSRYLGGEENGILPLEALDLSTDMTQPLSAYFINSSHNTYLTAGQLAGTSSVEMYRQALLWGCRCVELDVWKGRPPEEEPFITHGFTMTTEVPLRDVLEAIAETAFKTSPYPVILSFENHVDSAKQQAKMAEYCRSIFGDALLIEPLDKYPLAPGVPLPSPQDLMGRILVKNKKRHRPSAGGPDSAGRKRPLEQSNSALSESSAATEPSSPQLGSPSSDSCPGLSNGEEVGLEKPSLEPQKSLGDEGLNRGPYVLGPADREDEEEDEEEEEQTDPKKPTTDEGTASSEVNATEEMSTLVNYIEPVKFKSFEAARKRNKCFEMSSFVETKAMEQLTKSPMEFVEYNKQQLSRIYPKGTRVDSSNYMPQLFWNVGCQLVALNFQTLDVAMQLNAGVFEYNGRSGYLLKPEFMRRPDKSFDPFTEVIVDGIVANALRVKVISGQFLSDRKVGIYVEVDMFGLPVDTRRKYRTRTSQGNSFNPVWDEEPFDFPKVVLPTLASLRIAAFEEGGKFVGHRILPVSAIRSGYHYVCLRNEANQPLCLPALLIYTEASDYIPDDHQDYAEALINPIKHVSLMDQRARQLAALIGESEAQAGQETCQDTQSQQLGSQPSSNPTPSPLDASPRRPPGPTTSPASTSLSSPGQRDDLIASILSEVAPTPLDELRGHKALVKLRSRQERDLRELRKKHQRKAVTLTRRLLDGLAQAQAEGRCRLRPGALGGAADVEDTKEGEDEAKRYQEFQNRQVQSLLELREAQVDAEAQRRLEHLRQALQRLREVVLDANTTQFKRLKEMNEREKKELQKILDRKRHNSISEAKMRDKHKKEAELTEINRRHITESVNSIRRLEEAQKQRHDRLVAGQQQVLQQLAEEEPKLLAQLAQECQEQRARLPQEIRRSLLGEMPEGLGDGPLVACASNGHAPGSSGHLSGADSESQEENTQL

[4] = biological target: phospholipase-inactive mutant of PLCβ2 (H327 and H374 mutated to alanine) (UniProt Q00722); test: co-IP
FLAG-tagged PLCβ1 = biological target: T3, FLAG-tagged PLCβ1 (UniProt Q9NQ66); test: co-IP
T3 sequence: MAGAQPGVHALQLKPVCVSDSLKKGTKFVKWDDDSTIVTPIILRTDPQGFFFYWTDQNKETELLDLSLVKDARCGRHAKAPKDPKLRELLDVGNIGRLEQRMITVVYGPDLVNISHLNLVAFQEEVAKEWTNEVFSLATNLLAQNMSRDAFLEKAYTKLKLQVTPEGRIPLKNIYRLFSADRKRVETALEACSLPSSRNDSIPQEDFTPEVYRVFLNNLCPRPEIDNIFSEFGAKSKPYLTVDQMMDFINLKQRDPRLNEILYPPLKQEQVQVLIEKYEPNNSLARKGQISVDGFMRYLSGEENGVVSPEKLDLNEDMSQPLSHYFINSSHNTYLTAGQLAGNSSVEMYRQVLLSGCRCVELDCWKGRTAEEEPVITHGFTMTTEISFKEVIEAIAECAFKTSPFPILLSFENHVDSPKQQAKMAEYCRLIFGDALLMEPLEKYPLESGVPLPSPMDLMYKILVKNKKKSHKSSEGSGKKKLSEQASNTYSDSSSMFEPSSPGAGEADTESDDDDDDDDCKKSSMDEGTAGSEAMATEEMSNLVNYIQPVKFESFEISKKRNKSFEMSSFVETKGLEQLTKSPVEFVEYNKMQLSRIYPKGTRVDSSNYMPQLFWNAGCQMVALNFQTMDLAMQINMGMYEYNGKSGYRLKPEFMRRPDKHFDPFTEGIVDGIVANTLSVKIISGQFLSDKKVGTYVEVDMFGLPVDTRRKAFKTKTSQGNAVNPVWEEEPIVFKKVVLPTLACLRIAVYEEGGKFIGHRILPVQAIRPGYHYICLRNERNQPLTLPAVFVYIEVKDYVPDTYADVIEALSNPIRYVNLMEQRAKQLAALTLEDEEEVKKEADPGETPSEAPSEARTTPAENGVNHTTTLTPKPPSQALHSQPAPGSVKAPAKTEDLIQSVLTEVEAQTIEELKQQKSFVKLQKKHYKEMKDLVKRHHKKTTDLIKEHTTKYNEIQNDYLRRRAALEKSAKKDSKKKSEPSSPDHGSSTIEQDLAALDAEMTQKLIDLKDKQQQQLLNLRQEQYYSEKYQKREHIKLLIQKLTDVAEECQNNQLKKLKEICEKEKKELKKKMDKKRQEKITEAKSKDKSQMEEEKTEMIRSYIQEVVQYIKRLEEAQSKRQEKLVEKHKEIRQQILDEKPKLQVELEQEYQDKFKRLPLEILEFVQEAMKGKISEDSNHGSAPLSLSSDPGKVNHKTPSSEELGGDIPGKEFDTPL

[5] = biological target: endogenous PLCβ2 (mouse (endogenous in RAW264.7 and in mouse peritoneal macrophages)) (UniProt A3KGF7); test: co-IP; endogenous proteins; mouse peritoneal macrophages stimulated with poly(I:C) for the indicated times; lysates incubated with anti-PLCβ2 antibody and Protein G Sepharose overnight at 4 °C (Fig. 3f)
[6] = biological target: T4, HA-tagged TAK1 (transforming growth factor-β-activated kinase 1) (UniProt O43318); test: co-IP
T4 sequence: T1 sequence

In the case of “endogenous PLCβ2 (from UniProt A3KGF7 1-1181) (enzyme)”, the binding (GST-TAK1 [1]) is reported as “binds”.

In the case of “purified recombinant His-PLCβ2 (from UniProt Q00722 1-1185) (enzyme)”, the binding (GST-TAK1 [2]) is reported as “binds”.

B1: HA-tagged TAK1 (transforming growth factor-β-activated kinase 1) (enzyme, UniProt O43318 1-606)
chain: T1 sequence
B1 was tested, and the binding [3] was “binds”, the binding (FLAG-tagged PLCβ3) was “no binding” and the binding [4] was “binds”. The binding (FLAG-tagged PLCβ1) was “no binding”.

B2: endogenous TAK1 (enzyme, UniProt Q62073 1-579)
chain: MSTASAASSSSSSSASEMIEAPSQVLNFEEIDYKEIEVEEVVGRGAFGVVCKAKWRAKDVAIKQIESESERKAFIVELRQLSRVNHPNIVKLYGACLNPVCLVMEYAEGGSLYNVLHGAEPLPYYTAAHAMSWCLQCSQGVAYLHSMQPKALIHRDLKPPNLLLVAGGTVLKICDFGTACDIQTHMTNNKGSAAWMAPEVFEGSNYSEKCDVFSWGIILWEVITRRKPFDEIGGPAFRIMWAVHNGTRPPLIKNLPKPIESLMTRCWSKDPSQRPSMEEIVKIMTHLMRYFPGADEPLQYPCQYSDEGQSNSATSTGSFMDIASTNTSNKSDTNMEQVPATNDTIKRLESKLLKNQAKQQSESGRLSLGASRGSSVESLPPTSEGKRMSADMSEIEARIVATAGNGQPRRRSIQDLTVTGTEPGQVSSRSSSPSVRMITTSGPTSEKPARSHPWTPDDSTDTNGSDNSIPMAYLTLDHQLQPLAPCPNSKESMAVFEQHCKMAQEYMKVQTEIALLLQRKQELVAELDQDEKDQQNTSRLVQEHKKLLDENKSLSTYYQQCKKQLEVIRSQQQKRQGTS
In the case of B2, the binding [5] is reported as “binds”.

B3: TAB1 (protein, UniProt Q15750 1-504)
chain: MAAQRRSLLQSEQQPSWTDDLPLCHLSGVGSASNRSYSADGKGTESHPPEDSWLKFRSENNCFLYGVFNGYDGNRVTNFVAQRLSAELLLGQLNAEHAEADVRRVLLQAFDVVERSFLESIDDALAEKASLQSQLPEGVPQHQLPPQYQKILERLKTLEREISGGAMAVVAVLLNNKLYVANVGTNRALLCKSTVDGLQVTQLNVDHTTENEDELFRLSQLGLDAGKIKQVGIICGQESTRRIGDYKVKYGYTDIDLLSAAKSKPIIAEPEIHGAQPLDGVTGFLVLMSEGLYKALEAAHGPGQANQEIAAMIDTEFAKQTSLDAVAQAVVDRVKRIHSDTFASGGERARFCPRHEDMTLLVRNFGYPLGEMSQPTPSPAPAAGGRVYPVSVPYSSAQSTSKTSVTLSLVMPSQGQMVNGAHSASTLDEATPTLTNQSPTLTLQSTNTHTQSSSSSSDGGLFRSRPAHSLPPGEDGRVEPYVDFAEFYRLWSVDHGEQSVVTAP
In the case of B3, the binding [6] is reported as “binds” and the binding [3] is reported as “no binding”.
